Assay results as given in PubChem BioAssay AID1745853 (National Center for Advancing Translational Sciences (NCATS), 2022).
Values joined by “and” are separate entries in the source; they are usually repeats but may differ in a detail not shown here. Equal values may be shown once. Some of the results follow. The main result of the screen is listed elsewhere. These columns were measured beside it and carry no call.

Tests used:
Experiment in all cases: Primary Screen for Target Class Profiling of Small Molecule Inhibitors of Methyltransferases
[1] = target: Glycine N-methyltransferase (Homo sapiens) (UniProt Q14749); details: purified enzyme, MTase-Glo SAH luminescence; measured here: GNMT inhibition; at 40 µM; stronger effect = lower value
Method in brief: (§1)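 Each enzyme was reacted with SAM and its substrate, with compounds tested once at 40 uM; SAH formed was read by MTase-Glo luminescence.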

[2] = target: Guanidinoacetate N-methyltransferase (Homo sapiens) (UniProt Q14353); details: purified enzyme, MTase-Glo SAH luminescence; measured here: GAMT inhibition; at 40 µM; stronger effect = lower value
Method in brief: as §1

[3] = target: Histamine N-methyltransferase (Homo sapiens) (UniProt P50135); details: purified enzyme, MTase-Glo SAH luminescence; measured here: HNMT inhibition; at 40 µM; stronger effect = lower value
Method in brief: as §1

[4] = target: Nicotinamide N-methyltransferase (Homo sapiens) (UniProt P40261); details: purified enzyme, MTase-Glo SAH luminescence; measured here: NNMT inhibition; at 40 µM; stronger effect = lower value
Method in brief: as §1

[5] = target: Phenylethanolamine N-methyltransferase (Homo sapiens) (UniProt P11086); details: purified enzyme, MTase-Glo SAH luminescence; measured here: PNMT inhibition; at 40 µM; stronger effect = lower value
Method in brief: as §1
% is set by controls: 0 for no effect and ±100 for the full control effect.

Row | Compound | activity change, negative = inhibition [1] | activity change, negative = inhibition [2] | activity change, negative = inhibition [3] | activity change, negative = inhibition [4] | activity change, negative = inhibition [5]
1 | CCOCCCNC(=O)c1cc2n(n1)CC(C)(C(=O)NC1CCCCCC1)N(C)C2=O (stereo not given) | 6.82% | 0.215% | 2.32% | 7.49% | 1.76%
2 | CCN(C1CCOCC1)C1CN(C(=O)c2ccnn2C)C1 | -0.773% | 2.8% | 3.02% | -2.73% | -0.796%
3 | CC(=O)Nc1ccc(CN2CC[C@@H](c3ccc4c(c3)OCO4)[C@H](O)C2)cc1 | -2.63% | -1.36% | -2.44% | -3.24% | -4.71%
4 | CC(C)NC(=O)c1ccc2c(=O)n(Cc3ccccc3)c3nn(Cc4cccc(Cl)c4)c(=O)n3c2c1 | 4.45% | 0.911% | 9.86% | 4.83% | 7.85%
5 | CC(C)Cn1c(=O)c2ccccc2n2c(SCC(=O)Nc3ccccc3F)nnc12 | -2.56% | 4% | 4.85% | -8.29% | 4.04%
6 | CN1C(=O)c2cc(C(=O)N3CCC(C(N)=O)CC3)nn2CC1(C)C(=O)NC1CCCCCC1 (stereo not given) | -3.29% | -3.17% | -6.21% | -2.44% | -4.46%
7 | O=C1NC(c2cccc([N+](=O)[O-])c2)=CCN1c1ccccc1O | -10.3% and -4.43% | -5.94% and 13.2% | 6.27% and 10.4% | -12.1% and -4.17% | 0.027% and 5.6%
8 | CC(=O)OCC(=O)[C@@]1(O)CC[C@H]2[C@@H]3CCC4=CC(=O)C=C[C@]4(C)[C@H]3[C@@H](O)C[C@@]21C | 1.68% | 5.2% | 7.78% | -6.23% | 4.43%
9 | CCCn1c(=O)c2ccc(C(=O)NC(C)C)cc2n2c(=O)n(CC(=O)NCc3ccccc3)nc12 | 0.471% | -0.081% | 2.07% | -2.58% | -6.45%
10 | CC1CCCC(C)N1CCNC(=O)CCCc1nnc2n3nc(-c4ccccc4)nc3c3ccccc3n12 (stereo not given) | -2.16% | 1.75% | -23.8% | 11% | 2.3%
11 | COc1ccc(C2C(C(=O)O)C(C(=O)O)C2c2ccc(OC)cc2O[C@@H]2O[C@H](CO)[C@@H](O)[C@H](O)[C@H]2O)c(O[C@@H]2O[C@H](CO)[C@@H](O)[C@H](O)[C@H]2O)c1 (stereo not given in full) | -6.56% | -5.38% | 4.07% | -18.3% | -13%
12 | C=C(CO)C(=O)O[C@H]1C[C@@]23O[C@@H]2CC/C(=C/[C@H]2OC(=O)C(=C)[C@H]12)CO[C@H]3O | -2.58% | -14.8% | 5.99% | -26.2% | -0.425%
13 | C=C(C)C(=O)OC1CC(CO)CCC/C(CO)=C/C2OC(=O)C(=C)C21 (stereo not given) | 2.67% | 2.82% | 4.35% | -6.73% | 6.58%
14 | O=C(Cn1c(=O)oc2ccccc21)N1CC2CC(C1)[C@H]1CCCC(=O)N1C2 (stereo not given in full) | -3.93% | -8.68% | -3.11% | -14.7% | 6.31%
15 | CC(C)CNC(=O)c1ccc2c(=O)n(CC(C)C)c3nn(CC(=O)Nc4cccc(F)c4)c(=O)n3c2c1 | 5.88% | 3.83% | 7.1% | 6.03% | 6.07%
16 | Cc1ncc2c(c1CNC(=O)c1ccc(OC(F)F)cc1)CCNC2 | -6.02% | -1.82% | -4.29% | -3.6% | 5.65%
17 | CC(=O)Nc1c2n(c3ccc(F)cc13)CC(C)(C(=O)NC1CCCC1)N(c1ccccc1C)C2=O (stereo not given) | 1.29% | 2.68% | -5.02% | 2.11% | -1.13%
18 | O=C1COc2nccc(-c3ccccc3F)c2CN1Cc1cc(C(F)(F)F)cc(C(F)(F)F)c1 | -4.15% | 2.67% | 5.39% | -27.3% | -4.57%
19 | Cc1ccc(Cl)cc1N1C(=O)c2cc3sccc3n2CC1(C)C(=O)NC1CCCC(C)C1C (stereo not given) | -3.33% | 2.35% | -0.027% | 3.41% | -1.55%
20 | CC1(C(=O)NC2CCCCCCC2)Cn2c(ccc2-c2ccccc2)C(=O)N1Cc1cccnc1 (stereo not given) | -2.81% | -0.284% | -7.36% | -17.2% | -7.39%
21 | O=C(c1cc(F)ccc1Cl)N1CCCC1c1nncn1Cc1ccncc1 (stereo not given) | -1.1% | 1.43% | -0.235% | -1.31% | -3.08%
22 | CC1CCCC(NC(=O)C2(C)Cn3c(cc4occc43)C(=O)N2Cc2cccc(Cl)c2)C1C (stereo not given) | -3.07% | 4.29% | 3.47% | -7.8% | -1.24%
23 | Cc1ccc(C)c(N2C(=O)CSc3c(c4ccccc4n3C)C2C(=O)NCc2ccc(F)cc2)c1 (stereo not given) | -1.37% | 2.56% | 9.96% | 8.37% | 8.39%
24 | CN(Cc1ccc(-c2ccccc2)cc1)CC1CCCCC1 | -6.03% | -6.76% | -3.02% | -5.35% | -3.6%
25 | CCCN(CC1CC1)c1nc(C)nc(Nc2c(Cl)cc(Cl)cc2Cl)c1Cl | 2.58% | 9.66% | 7.84% | -7.07% | -0.551%
26 | O=C(CCl)Nc1cccc(NC2=NS(=O)(=O)c3ccccc32)c1 | -32% | -8.73% | 6.34% | -12.2% | -1.69%
27 | CCN1C(=O)c2c(C(=O)NCc3cccc(Br)c3)ncn2CC1(C)C(=O)NC1CCCC1 (stereo not given) | -5.33% | 3.6% | 2.12% | -0.266% | -1.43%
28 | O=C(Cn1nc2n(CCc3ccccc3)c(=O)c3ccccc3n2c1=O)Nc1ccccc1F | 2.88% | 0% | 9.4% | -0.571% | 3.42%
29 | O=C(OCC1OC(Oc2ccc(O)cc2COC(=O)C2(O)C(O)CCC(=O)C2OC(=O)C2C=CCC2)C(OC(=O)C2C=CCC2)C(O)C1O)C1C=CCC1 (stereo not given) | -2.29% | 6.88% | 7.74% | -7.75% | 5.43%
